Some of these densities may be calculated back from excess volumes.
Assay: xn = mol fraction of the nth substance listed

CCCCN(C=O)CCCC + CCCCn1cc[n+](C)c1.FC(F)(F)C(F)(F)[P-](F)(F)(F)(C(F)(F)C(F)(F)F)C(F)(F)C(F)(F)F
mass density [kg/m3], 100 kPa
Details | 293.15 K | 298.15 K | 303.15 K | 308.15 K | 313.15 K | 318.15 K | 323.15 K
x1 = 0.053 | 1607.8 | 1602.1 | – | 1590.5 | – | 1578.9 | 1573
x1 = 0.0949 | 1589.6 | 1583.8 | 1578.2 | 1572.4 | 1566.6 | 1560.9 | –
x1 = 0.1951 | – | 1538.4 | 1532.9 | 1527.1 | 1521.4 | 1515.8 | 1510
x1 = 0.2975 | 1493.2 | 1487.7 | 1482.3 | 1476.7 | 1471.1 | – | 1459.8
x1 = 0.4051 | 1433 | 1427.7 | 1422.4 | 1417 | 1411.5 | 1406.1 | –
x1 = 0.4999 | 1373.1 | – | 1362.8 | 1357.5 | 1352.1 | 1346.8 | 1341.4
x1 = 0.5987 | – | 1297.4 | 1292.4 | 1287.3 | 1282.2 | 1277 | 1271.8
x1 = 0.6947 | 1224.4 | 1219.6 | 1214.7 | 1209.8 | 1204.9 | 1200 | 1194.9
x1 = 0.8017 | – | 1119 | 1114.4 | 1109.8 | 1105.2 | 1100.6 | 1095.7
x1 = 0.8491 | 1073.2 | – | 1064.3 | 1059.9 | 1055.3 | 1050.8 | 1046.1
x1 = 0.9092 | 1002.8 | 998.6 | 994.4 | 990 | – | 981.3 | 976.8
x1 = 0.9306 | 975.8 | 971.6 | 967.4 | – | – | 954.5 | 950.1
x1 = 0.9656 | 928.7 | 924.6 | – | 916.5 | 912.3 | 908 | –

CC1CC(=O)O1 (stereo not given) + CCCC[n+]1ccn(C)c1.O=S(=O)([N-]S(=O)(=O)C(F)(F)F)C(F)(F)F
100 kPa
Details | mass density [kg/m3]
293.15 K, x1 = 0.8474 | 1207.5
323.15 K, x1 = 0.186 | 1385.5

CCCC[n+]1ccn(C)c1.O=S(=O)([N-]S(=O)(=O)C(F)(F)F)C(F)(F)F + O=C1CCCO1
100 kPa, x2 = 0
Details | mass density [kg/m3]
293.15 K | 1439.3
308.15 K | 1424.6
313.15 K | 1419.6
318.15 K | 1414.7
323.15 K | 1409.7

CC1COC(=O)O1 (stereo not given) + CCCC[n+]1ccn(C)c1.O=S(=O)([N-]S(=O)(=O)C(F)(F)F)C(F)(F)F
101 kPa
Details | mass density [kg/m3]
298.15 K, x1 = 0.3098 | 1409.5
298.15 K, x1 = 0.4161 | 1396.5
308.15 K, x1 = 0.5996 | 1355.5
313.15 K, x1 = 0.4979 | 1369.5

O=C1CCCO1 + CC[n+]1ccn(C)c1C.O=S(=O)([N-]S(=O)(=O)C(F)(F)F)C(F)(F)F
Details | mass density [kg/m3]
293.15 K, 100 kPa, x1 = 1 | 1129.5

CCCCn1cc[n+](C)c1.FC(F)(F)C(F)(F)[P-](F)(F)(F)(C(F)(F)C(F)(F)F)C(F)(F)C(F)(F)F + CNC=O
mass density [kg/m3], 100 kPa
Details | 293.15 K | 298.15 K | 303.15 K | 308.15 K | 313.15 K | 318.15 K | 323.15 K
x1 = 0.0177 | 1063.7 | – | 1054.5 | 1049.8 | – | 1040.3 | 1035.4
x2 = 0.0972 | 1618.6 | 1612.7 | 1606.9 | 1601.1 | 1595.2 | 1589.4 | 1583.4
x2 = 0.1852 | 1605.6 | 1599.8 | 1594 | 1588.1 | 1582.3 | 1576.4 | 1570.4
x2 = 0.3184 | 1581.8 | 1575.9 | 1570.1 | 1564.2 | 1558.3 | 1552.4 | –
x2 = 0.3957 | 1564.5 | 1558.7 | – | 1547 | 1541.1 | 1535.2 | –
x2 = 0.4503 | – | – | 1538.8 | 1532.9 | 1526.9 | 1521.1 | 1515.1
x2 = 0.5042 | – | 1528.7 | 1522.9 | – | 1511.1 | 1505.2 | 1499.2
x2 = 0.585 | 1505.4 | 1499.5 | 1493.7 | 1487.8 | 1482 | – | –
x2 = 0.7032 | 1446.7 | 1441 | 1435.2 | 1429.5 | 1423.7 | 1417.8 | –
x2 = 0.8 | 1373.8 | 1368.2 | 1362.6 | 1357 | – | 1345.6 | 1339.8
x2 = 0.8505 | 1320.2 | 1314.7 | 1309.2 | 1303.7 | 1298.1 | 1292.5 | 1287
x2 = 0.8997 | – | 1245.5 | 1240.2 | 1234.9 | 1229.6 | 1224.2 | 1218.8
x2 = 0.9336 | 1188 | 1183.2 | 1178 | 1172.9 | 1167.8 | 1162.7 | 1157.4
x2 = 0.9504 | 1150.6 | 1145.9 | 1141 | 1136 | – | 1125.9 | –

Reference: a compilation of properties of binary mixtures (doi:10.2298/jsc190413047v)
